# Test results as given in publication PMC4336329 (PLoS ONE, 2015).
# About 2,200 (0.71%) of roughly 310,000 compounds showed an effect of 50% or more. Effects have a minus sign here. Some of the results follow. Where a SMILES comes first, the peptide text is derived from it. The star is where a group is joined. Boc = CC(C)(C)OC(=O)*
# Target: human ether-à-go-go-related gene (hERG) potassium channel (human, UniProt Q12809)
# Assay: primary screen, population patch clamp on CHO cells stably expressing hERG
# Chain of human ether-à-go-go-related gene (hERG) potassium channel (Q12809 whole entry, looked up): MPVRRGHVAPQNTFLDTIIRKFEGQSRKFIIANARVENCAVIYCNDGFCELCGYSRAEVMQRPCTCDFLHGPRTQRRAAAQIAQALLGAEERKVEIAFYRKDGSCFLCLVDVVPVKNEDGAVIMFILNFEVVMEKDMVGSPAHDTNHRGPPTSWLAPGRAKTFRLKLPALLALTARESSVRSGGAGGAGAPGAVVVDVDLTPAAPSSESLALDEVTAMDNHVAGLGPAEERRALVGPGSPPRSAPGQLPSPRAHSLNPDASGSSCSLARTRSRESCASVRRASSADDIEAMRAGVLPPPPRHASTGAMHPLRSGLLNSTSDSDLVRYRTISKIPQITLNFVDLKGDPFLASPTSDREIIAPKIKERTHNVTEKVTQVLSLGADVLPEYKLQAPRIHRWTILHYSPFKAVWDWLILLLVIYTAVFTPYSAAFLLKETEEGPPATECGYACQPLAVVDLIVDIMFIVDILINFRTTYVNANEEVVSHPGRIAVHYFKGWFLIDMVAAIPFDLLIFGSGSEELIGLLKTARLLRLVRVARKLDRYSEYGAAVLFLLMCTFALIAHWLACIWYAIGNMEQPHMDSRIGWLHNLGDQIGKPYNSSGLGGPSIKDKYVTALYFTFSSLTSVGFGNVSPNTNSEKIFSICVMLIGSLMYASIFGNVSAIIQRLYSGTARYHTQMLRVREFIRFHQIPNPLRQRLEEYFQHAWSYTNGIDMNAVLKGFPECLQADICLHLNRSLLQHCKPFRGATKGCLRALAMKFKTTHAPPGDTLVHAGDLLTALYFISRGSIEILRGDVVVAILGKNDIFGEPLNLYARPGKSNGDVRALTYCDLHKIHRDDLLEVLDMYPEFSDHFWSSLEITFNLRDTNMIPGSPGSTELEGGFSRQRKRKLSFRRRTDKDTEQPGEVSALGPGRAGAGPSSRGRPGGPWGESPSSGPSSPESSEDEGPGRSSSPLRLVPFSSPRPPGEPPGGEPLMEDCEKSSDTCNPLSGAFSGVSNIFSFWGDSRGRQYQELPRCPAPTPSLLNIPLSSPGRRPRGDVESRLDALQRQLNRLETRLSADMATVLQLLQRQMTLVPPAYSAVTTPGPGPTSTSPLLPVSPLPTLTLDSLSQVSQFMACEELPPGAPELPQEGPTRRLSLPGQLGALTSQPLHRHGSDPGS
row,Structure (SMILES),"hERG current change (%, negative = inhibition) at 1uM"
1,O=C(CSc1ccc2c(c1)OCCO2)Nc1ncccc1O,8.54%
2,CCOc1ccc(N=NC2C(=O)N(C(N)=S)N=C2C)cc1 (stereo not drawn),13.1%
3,COc1ccccc1C(C#N)N1N=C(C)CC1(C)C (stereo not drawn),13.8%
4,COc1ccccc1C1=NOC(C)(c2nnc(-c3cccc(Cl)c3)o2)C1 (stereo not drawn),14%
5,CC1(c2ccc3ccccc3c2)NC(=O)N(CC(=O)O)C1=O (stereo not drawn),0.814%
6,Cc1nc(NC(=O)c2ccc(Cl)cc2)sc1Cc1ccc2c(c1)OCO2,17.3%
7,Nc1nc(CN2CCN(C(=O)c3ccco3)CC2)nc(Nc2cccc(Cl)c2)n1,-76.3%
8,CC1CCCN(CCC(=O)Nc2ccc3c(c2)CCC3)C1.Cl (stereo not drawn),-8.9%
9,c1ccc(-n2c(Cc3cn4ccsc4n3)nnc2N2CCOCC2)cc1,10.5%
10,Cc1cc(C)cc(NC(=O)c2cc(S(=O)(=O)N3CCCC3)cn2C)c1,7.36%
11,CCC(Cc1ccccc1)NC(=O)CCNS(=O)(=O)c1cc(Br)cnc1N (stereo not drawn),5.66%
12,CCN(Cc1ccccc1)C(=O)c1oc2ccc(C)cc2c1C,11.9%
13,CCOn1c(=O)c(-c2ccccc2)[n+]([O-])c2ccccc21,6.02%
14,CCN1C(=O)NC(c2cc(Br)ccc2OC)C(C(=O)OC)=C1C (stereo not drawn),5%
15,Cc1ccc(NC(=O)c2scc3c2CCCC3)cc1,7.37%
16,COc1ccc(OC)c(NC(=O)c2cc(S(=O)(=O)N3CCCC3)cn2C)c1,-11.6%
17,COC(=O)c1ccc2c(=O)n(-c3ccc(OC)cc3)c(=S)[nH]c2c1,13.6%
18,Cc1cc2oc(=O)cc(Cn3ccnc3)c2cc1C,1.33%
19,CCCCCCCNC(=O)C1(CC2CC(c3cccc(Br)c3)=NO2)CCN(C(=O)C2(C)CC2)CC1 (stereo not drawn),2.51%
20,Cc1ccc(Cl)cc1N1CCN(S(=O)(=O)c2ccc3[nH]c(=O)ccc3c2)CC1,8.35%
21,O=C(NC(=O)N1CCCCC1)c1ccccc1,8.26%
22,Cc1cccc(NC(=O)CCOc2ccccc2)c1,14.2%

row,Structure (SMILES),"hERG current change (%, negative = inhibition) at 1uM"
1,FC(F)(F)c1ccccc1-n1c(-c2cnccn2)n[nH]c1=S,9.65%
2,O=C(COC(=O)COc1ccccc1)NC1CCCC1,9.76%
3,Cc1ccc(C(=O)OCN2C(=O)c3ccccc3C2=O)cc1S(=O)(=O)N1CCOCC1,14.4%
4,COc1ccc(CC(=O)Nc2ccc(-c3cn4ccc(C)cc4n3)cc2)cc1,4.26%
5,O=C(Nc1ccc(S(=O)(=O)N2CCOCC2)cc1)c1cccc([N+](=O)[O-])c1,15.5%
6,CNC(=O)COc1ncnc2sc(C)c(C)c12,-1.68%
7,O=C(CCN1C(=O)/C(=C/c2cccs2)SC1=S)Nc1ccc(C(=O)O)cc1,11.8%
8,CCC(c1nnnn1C1CCCC1)N1CCN(c2ccccc2F)CC1 (stereo not drawn),-2.45%
9,N/C(=N\OC(=O)c1ccc(Cl)c(Cl)c1)c1ccccn1,8.65%
10,CC(C)C1Oc2ccccc2N(CC(=O)NC2CCCCC2)C1=O (stereo not drawn),7.66%
11,COc1cccc(N=Cc2nc(-c3ccccc3)oc2OC(C)=O)c1,3.92%
12,O=C(CSc1nnnn1-c1ccc(O)cc1)c1ccc(F)cc1,4.3%
13,Cc1ccc(C(=O)N/C(=C\c2ccccc2F)c2nc(=S)[nH][nH]2)cc1,10.1%
14,COc1ccc(S(=O)(=O)N(CCCN2CCOCC2)Cc2cccc3ccccc23)cc1,7.17%
15,Cc1ccccc1C(=O)Nc1nnc(-c2ccco2)s1,10.1%
16,COc1ccccc1NC(=O)Nc1nc(CC(=O)Nc2ccc(N(C)C)cc2)cs1,7.82%
17,CCN1CCN(C(=O)C(C)Nc2ccc(OC)cc2OC)CC1 (stereo not drawn),0.55%
18,C[C@@H]1C(=O)O[C@@H]2[C@H](O)C34[C@H]5C[C@@H](C(C)(C)C)C36[C@H](OC(=O)[C@@H]6O)OC4(C(=O)O5)[C@@]12O (stereo partly drawn),10.8%
19,COc1ccc(-n2ncc(C(C)NS(=O)(=O)c3cc(F)ccc3C)c2C)cc1 (stereo not drawn),-31.6%
20,CC(C)CC(NC(=O)C(NC(=O)OC(C)(C)C)C(C)C)C(N)=O (stereo not drawn) (Boc-Val-Leu-NH2; configuration not given here),4%
21,COc1cccc(NC(=O)c2ccc(CN3CCN(c4ccccc4)CC3)cc2)c1,-23.1%
22,NC(=O)[C@@H]1CCCN1Cc1nc(-c2ccc(C(F)(F)F)cc2)no1,8.63%

row,Structure (SMILES),"hERG current change (%, negative = inhibition) at 1uM"
1,O=C(NCc1ccco1)NC1CCCCC1,5.72%
2,CCOc1ccc(N=CNc2ccc(OCC)cc2)cc1,13.2%
3,Fc1cccc(CCN2C(=S)NC[C@@H]2CC2CCCCC2)c1,8.53%
4,Cc1ccc(C(=O)N(C)CC(=O)Nc2ccc(F)c(F)c2F)o1,11.7%
5,O=C(CN(CC1CCCO1)C(=O)CNS(=O)(=O)c1ccc(F)cc1)NCc1ccco1 (stereo not drawn),13.5%
6,O=C(Nc1ccc(Br)c(C(F)(F)F)c1)c1ccccc1,25.7%
7,CCOc1ccc2nc(NC(=O)NC3CCCCC3)sc2c1,6.37%
8,O=C(NCC1CCCO1)c1ccc(Cl)c(S(=O)(=O)N2CCOCC2)c1 (stereo not drawn),14.4%
9,O=C1CCC/C(=N/NC(=O)c2ccc(CN3c4cccc5cccc(c45)S3(=O)=O)cc2)C1,10.2%
10,CCCC(=O)Nc1ccc(OCC(=O)OC)cc1,8.66%
11,COc1ccc(COCC(O)CN2CCc3ccccc3C2)cc1OC.Cl (stereo not drawn),4.26%
12,COc1ccc(C)cc1S(=O)(=O)Nc1cccc(Cl)c1,17.7%
13,CCCc1cc(=O)n2[nH]c(-c3ccc(C)cc3)cc2n1,12.8%
14,Cc1ccc2nc(N(CCCN(C)C)C(=O)c3cc4ccccc4oc3=O)sc2c1.Cl,3.84%
15,COc1ccccc1C(=O)NC(=O)COC(=O)CCOc1ccccc1C,6.25%
16,COC(=O)C1=C(N)Oc2cc(C)n(Cc3cccnc3)c(=O)c2C1c1cc(OC)ccc1OC (stereo not drawn),2.03%
17,CO/N=C/c1cn(-c2ccc(Cl)cc2)nn1,15.5%
18,C=CCN(Cc1cccs1)C(=O)CN1CCN(S(=O)(=O)c2ccc3c(c2)OCCCO3)CC1,10.9%
19,Cc1ccccc1-c1nc(CS(=O)(=O)CC(=O)NCCCN2C(C)CCCC2C)c(C)o1 (stereo not drawn),2.14%
20,Cn1c(=NC(=O)c2ccccc2[N+](=O)[O-])sc2cccc(F)c21,9.25%
21,COc1cc(C(=O)NNC(=O)c2cccc(Cl)c2)ccc1OCC(=O)N1CCOCC1,-9.17%
22,C=CC(=O)NCc1ccc(-c2csnn2)cc1,0.013%

row,Structure (SMILES),"hERG current change (%, negative = inhibition) at 1uM"
1,COc1cccc(CNC(=O)CCC2CCCN(C(=O)c3ccoc3)C2)c1 (stereo not drawn),19.3%
2,Cc1nn(-c2ccc(Cl)cc2)c(N)c1C(O)(CSc1nccn1C)C(F)(F)F (stereo not drawn),-2.64%
3,O=C1c2ccccc2C(=O)N1CC1=CCS(=O)(=O)C1,5.15%
4,Cc1ccccc1CSc1ccc(-c2ccc3c(c2)OCO3)nn1,-8.46%
5,CCC1=NN(C(=O)C(=O)NCCc2ccccc2)C(O)(C(F)(F)F)C1 (stereo not drawn),-3.4%
6,COc1ccc(CNC(=O)COC(=O)CN2C(=O)NC3(CCCC3)C2=O)cc1,10.9%
7,CC1(C(=O)NNC(=O)C2CCCCC2)CC1(Cl)Cl (stereo not drawn),14.2%
8,CCn1c(CNC(=O)c2ccccc2F)nnc1SCc1nc2ccccc2c(=O)[nH]1,7.8%
9,CCN(CC)CCC(c1ccc(N(C)C)cc1)c1c(OC)cc(OC)c2c(-c3ccccc3)cc(=O)oc12 (stereo not drawn),3.18%
10,Oc1c(Br)cc2oc3c(c2c1CNCc1ccccc1)CCCC3,16.1%
11,CC1CCN(c2nc3c(c(=O)[nH]c(=O)n3C)n2CC(C)CSc2nnnn2-c2ccccc2)CC1 (stereo not drawn),-0.615%
12,CN(CC(=O)Nc1cccc(S(=O)(=O)N2CCCCC2)c1)Cc1ccc(F)cc1,-4.26%
13,O=c1[nH]c(=O)n(CCC2=CCCCC2)c(O)c1/C=N/N1CCOCC1,-3.9%
14,O=C(NCCCCc1ccccc1)c1cc([N+](=O)[O-])cc([N+](=O)[O-])c1,6.09%
15,COc1cc(/C=C/C(=O)Oc2coc(CSc3ncccn3)cc2=O)cc(OC)c1OC,9.21%
16,CCOc1ccc(N2C(=O)NC(=O)/C(=C\c3cc(OC)c(OC)cc3[N+](=O)[O-])C2=O)cc1,21.7%
17,C[C@@H](C(=O)Nc1ccc2c(c1)OCO2)n1c(=O)[nH]c2ccccc2c1=O,13.4%
18,Cc1ccc(S(=O)(=O)N(Cc2ccc(Cl)cc2)c2ccccc2C(=O)NCc2cccnc2)cc1,7.96%
19,O=C(CO/N=C\c1ccccc1)Nc1ccccc1C(=O)N1CCOCC1,9.75%
20,O=C(CCN1CCOCC1)N1CCc2c([nH]c3ccccc23)C1c1cccc(Cl)c1 (stereo not drawn),-24.3%
21,CCOP(=O)(OCC)c1nc(-c2ccc(C)cc2)oc1N1CCOCC1,-0.453%
